Source: paper PMC7959344

Legend:
[1] = target: RRV 26–95 gH-V5/gL-Flag complex (rhesus monkey rhadinovirus (RRV) isolate 26–95)
[2] = target: RRV 26–95 gH-V5/gL-Flag complex (rhesus monkey rhadinovirus (RRV) isolate 26–95); remark: listed apart in the source

“human full-length myc-tagged EphB3 (from UniProt P54753 34-998) (receptor)” was tested. Which cell-cell fusion (luciferase) of 293T cells expressing RRV 26–95 gH/gL/gB with hEphB3-Strep overexpressing Raji cells (Fig 6E) [1] did it give?
Its cell-cell fusion (luciferase) of 293T cells expressing RRV 26–95 gH/gL/gB with hEphB3-Strep overexpressing Raji cells (Fig 6E) is 129 fold.

For “myc-tagged full-length human Plxdc1 (from UniProt Q8IUK5-1 19-500) (receptor)”, which cell-cell fusion (luciferase) of 293T cells expressing RRV 26–95 gH/gL/gB with Raji-Gal4-Luc cells expressing Plxdc1-Strep, against control transfected 293T cells (Fig 6E) [1] is on record?
The cell-cell fusion (luciferase) of 293T cells expressing RRV 26–95 gH/gL/gB with Raji-Gal4-Luc cells expressing Plxdc1-Strep, against control transfected 293T cells (Fig 6E) was 79 fold.

For “myc-tagged full-length human Plxdc2 (from UniProt Q6UX71-1 31-529) (receptor)”, which cell-cell fusion (luciferase) of 293T cells expressing RRV 26–95 gH/gL/gB with Raji-Gal4-Luc cells expressing Plxdc2-Strep, against control transfected 293T cells (Fig 6E) [1] is on record?
The cell-cell fusion (luciferase) of 293T cells expressing RRV 26–95 gH/gL/gB with Raji-Gal4-Luc cells expressing Plxdc2-Strep, against control transfected 293T cells (Fig 6E) was 45 fold.

For “soluble human Plxdc2, ectodomain (amino acids 31–453) fused to IgG1 Fc with a C-terminal tandem Strep-Tag (from UniProt Q6UX71-1 31-453) (Fc fusion)”, which inhibition of RRV-YFP wt infection of HaCaT cells by a concentration series of soluble hPlxdc2-FcStrep (Fig 4B) [2] is on record?
The inhibition of RRV-YFP wt infection of HaCaT cells by a concentration series of soluble hPlxdc2-FcStrep (Fig 4B) was 60%.
